Values marked as one replicate rest on one cluster of the flow cell; about a third of the high ones do not repeat.
test system: ATP; experiment: switch fluorescence ratio, 500 uM ATP over buffer (Cy3 cluster intensity, sum of 5 cycles each) (fold (ratio)); higher = stronger signal-on switching upon ATP binding; sequences stand for … in TCGTCGGCAGCGTCAGATGTGTATAAGAGACAGTTTTTTTTTTTTTTTTTTTTTTTTT…TC; settings: aptamer strand: ATP DNA aptamer (quencher-CACCTGGGGGAGTATTGCGGAGGAAGG + anchor), 100 nM annealed; ATP concentration: 500 uM; one replicate
In short: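 Clusters with intensities outside 100-1000 RFU were excluded. The remaining Cy3-labelled switching-strand clusters on a modified Illumina MiSeq flow-cell had been annealed to 100 nM quencher-labelled ATP aptamer and imaged in selection buffer, then after 15 min with 500 uM ATP at 22 °C, for five cycles separated by NaOH stripping and re-annealing. The fluorescence ratio, averaged per switch-domain sequence, is each cluster's summed target-cycle Cy3 intensity over its summed buffer-cycle Cy3 intensity.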
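Note: ATP exposure 15 min at 22 °C before imaging.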

Sequence	switch fluorescence ratio
CCTCGAGCTG	1.96
CCTCGATAAA	1.24
CCTCGCTTTG	1.71
CCTCGGGAAT	6.19
CCTCGTAAAG	1.88
CCTCGTATA	2.87
CCTCTCAGGA	1.1
CCTCTGATGT	1.91
CCTCTGCCGT	1.96
CCTCTGGGCA	1.99
CCTCTTATAG	1.96
CCTGAACAGC	0.999
CCTGAAGCGA	4.59
CCTGACATT	1.01
CCTGAGAGT	1.04
CCTGAGGGTA	1.01
CCTGAGGTAT	1.02
CCTGATAAAA	0.996
CCTGATCAAA	1.01
CCTGATTTTA	0.979
CCTGCGAACG	1.44
CCTGCGCTAG	4.91
CCTGCTCCTC	1.32
CCTGCTGAAC	2.43
CCTGCTGGGT	1.01
CCTGGAAGTA	1

Sequence	switch fluorescence ratio
CCTGGACGCC	1.06
CCTGGACGGG	1.02
CCTGGATTAA	1.05
CCTGGCATCT	1.19
CCTGGCTCAG	1.08
CCTGGCTGGG	1.02
CCTGGTAACA	0.984
CCTGTCAAAT	1.12
CCTGTGGTGG	1.02
CCTGTGTGAT	1.44
CCTGTGTGGA	0.965
CCTGTGTGTC	1.06
CCTTAACCTT	1.71
CCTTAAGGTT	0.992
CCTTACATGG	1.01
CCTTAGAGCG	1.03
CCTTAGCGA	2.02
CCTTAGGTGG	1.06
CCTTATTGT	1.01
CCTTCATGGT	0.996
CCTTCGATAG	3.67
CCTTCGGAAG	1.76
CCTTCGGGTA	1.55
CCTTCTAAGG	1.57
CCTTCTGTCG	1.48
CCTTGAAA	0.977

Sequence	switch fluorescence ratio
CCTTGAGGG	0.996
CCTTGCGTT	1.2
CCTTGGAATG	0.993
CCTTGGGGAC	2.77
CCTTGGGTTC	2.21
CCTTGGTAG	1
CCTTGGTTT	1.02
CCTTTAGTAC	1.57
CCTTTATTAC	1.51
CCTTTCCTCA	1.61
CCTTTCTATG	1.13
CCTTTGATCG	0.988
CCTTTGTGCA	1.08
CCTTTTCCAC	1.04
CCTTTTCGTT	1.05
CGAAACGTCC	1.26
CGAAACTATA	1.03
CGAAAGGGAG	1.03
CGAAATTGGG	1.03
CGAACATGGG	1.01
CGAACGCCGG	1.04
CGAACGGGTC	1.02
CGAAGTCGCG	0.99
CGAATTAATC	1
CGAATTACGC	1.18

From the supplement of paper PMC10126150
